# Experimental data from PubChem BioAssay AID504332 (National Center for Advancing Translational Sciences (NCATS), 2011).
# “And” between values parts separate entries of the source, which are not always exact repeats. Equal entries are not always repeated. Hit rate of the full screen: of about 350,000 compounds, about 31,000 (8.9%) were called active. Inconclusive means that the source gave no clear call. Such entries were picked first, then a sample of the others. Calls follow the shape of the dose curve; as a rule, active = well fitted inhibition curve with a large enough effect; inconclusive = small, poorly fitted or top-dose-only effect; inactive = no such curve, though single readings can be large or run the other way. Potencies of inconclusive entries are doubtful fits and often do not repeat.
# Target: Histone-lysine N-methyltransferase EHMT2 (Homo sapiens) (UniProt Q96KQ7)
# Test: qHTS Assay for Inhibitors of Histone Lysine Methyltransferase G9a; also: nearly all actives have a fitted effect of over 75% in size
# Conditions: G9a H3K9 monomethylation, AlphaScreen, 2 h; activity, negative = inhibition: at 59 µM (top of the series) unless noted
# Outline: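 AlphaScreen read-out: biotin-H3K9 peptide (500 nM) methylation by 20 nM enzyme with 20 uM SAM, 2 h at room temperature after 15 min compound preincubation; anti-monomethyl H3K9 antibody plus donor/acceptor beads, 10 min dark.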
# % is scaled to controls: 0 for no effect and ±100 for the full control effect; potency is read from the fitted curve at half-maximal effect; tags tell the direction and shape of the fitted curve.
# Sequence of UniProt Q96KQ7 (Q96KQ7 whole entry, looked up): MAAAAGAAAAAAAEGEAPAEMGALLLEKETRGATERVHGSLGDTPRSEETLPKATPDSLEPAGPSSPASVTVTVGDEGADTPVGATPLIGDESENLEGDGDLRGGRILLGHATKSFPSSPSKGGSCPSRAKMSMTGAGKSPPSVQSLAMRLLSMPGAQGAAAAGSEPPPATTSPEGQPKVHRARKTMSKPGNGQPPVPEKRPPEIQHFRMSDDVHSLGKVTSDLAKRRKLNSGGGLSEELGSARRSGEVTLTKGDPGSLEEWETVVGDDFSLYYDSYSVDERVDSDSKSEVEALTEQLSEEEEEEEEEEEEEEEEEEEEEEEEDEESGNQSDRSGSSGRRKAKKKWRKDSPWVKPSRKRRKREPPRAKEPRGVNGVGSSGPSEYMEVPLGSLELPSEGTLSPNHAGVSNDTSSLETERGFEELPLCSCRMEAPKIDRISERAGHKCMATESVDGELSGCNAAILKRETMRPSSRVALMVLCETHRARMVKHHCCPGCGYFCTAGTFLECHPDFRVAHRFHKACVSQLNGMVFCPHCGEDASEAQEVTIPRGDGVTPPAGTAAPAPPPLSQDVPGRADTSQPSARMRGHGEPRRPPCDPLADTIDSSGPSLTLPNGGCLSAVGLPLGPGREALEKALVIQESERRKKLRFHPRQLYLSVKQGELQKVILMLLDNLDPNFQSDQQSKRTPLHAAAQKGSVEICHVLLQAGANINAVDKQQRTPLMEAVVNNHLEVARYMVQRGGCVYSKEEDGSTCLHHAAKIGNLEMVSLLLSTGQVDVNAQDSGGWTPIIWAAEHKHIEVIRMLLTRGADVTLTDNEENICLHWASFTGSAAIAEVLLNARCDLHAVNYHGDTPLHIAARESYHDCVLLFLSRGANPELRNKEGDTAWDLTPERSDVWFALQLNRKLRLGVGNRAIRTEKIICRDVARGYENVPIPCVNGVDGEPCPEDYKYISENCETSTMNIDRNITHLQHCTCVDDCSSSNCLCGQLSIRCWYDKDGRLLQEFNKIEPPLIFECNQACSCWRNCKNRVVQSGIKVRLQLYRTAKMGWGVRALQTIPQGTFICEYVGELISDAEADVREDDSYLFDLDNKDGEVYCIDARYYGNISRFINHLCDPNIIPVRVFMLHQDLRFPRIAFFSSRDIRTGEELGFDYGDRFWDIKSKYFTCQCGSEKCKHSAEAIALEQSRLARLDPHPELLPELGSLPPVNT
Compound,Potency,"activity, negative = inhibition"
O=C(N/N=C/c1cc2c(cc1Cl)OCO2)c1ccncc1,"inconclusive: 89.1 µM [inhibitor, single point]",–
Cc1ccccc1OCCC(=O)OCC(=O)NC(=O)c1ccccc1,"inconclusive: 79.4 µM [inhibitor, single point]",–
COc1cccc(NC(=O)COC(=O)c2cc(=O)c3ccccc3o2)c1,–,inactive: -17.9% [at 12.7 µM]
COc1ccc(C2CC(c3cccs3)=NN2c2ccccc2)cc1 (centres undefined),inactive,–
O=C(O)c1cnn(-c2nc(-c3cccc(F)c3)cs2)c1C(F)(F)F,active: 50.1 µM,–
O=C(c1ccc(F)cc1)C1CCN(CCn2c(=S)[nH]c3ccccc3c2=O)CC1,"inconclusive: 2.51 µM [inhibitor, partial curve, poor fit] and inconclusive: 8.91 µM [inhibitor, single point]",–
CC1CC(C)CN(C(=O)C2CCN(S(=O)(=O)c3cccs3)CC2)C1 (centres undefined),"inconclusive: 0.794 µM [inhibitor, partial curve, poor fit]",–
Cc1cc(-c2ccccc2)c2ccc(NC(=O)C(C)(C)C)nc2n1,–,inconclusive: -52.3% [inhibitor] [at 0.501 µM]
CCc1ccc(NC(=O)C(=O)NCC(c2cccnc2)N2CCOCC2)cc1 (centres undefined),"inconclusive: 1.58 µM [inhibitor, partial curve, poor fit]",–
COc1cccc2c1NC(C(=O)O)C1CC=CC21 (centres undefined),active: 2.51 µM,–
CCOc1cc2c(cc1OC)C(c1cccc([N+](=O)[O-])c1)NCC2 (centres undefined),"inconclusive: 70.8 µM [inhibitor, single point]",–
O=C(CN1CCSCC1)N/N=C/c1ccc(F)cc1,active: 8.91 µM,–
COc1ccc(N2CCN(S(=O)(=O)CCNC(=O)COc3ccccc3C)CC2)cc1,active: 44.7 µM,–
O=C(COC(=O)CNC(=O)c1ccccc1F)Nc1ncc(Cl)cc1Cl,–,inactive: 18.5% [at 12.7 µM]
CN1CCN(CCCCOc2ccc(Br)cc2)CC1,active: 4.47 µM,–
C(=N/n1c2ccccc2c2ccccc21)/c1ccco1,"inconclusive: 8.91 µM [inhibitor, single point]",–
O=C(COc1ccccc1)Nc1nnc(S(=O)(=O)N2CCCCC2)s1,inactive,–
Nn1c(-c2ccccc2Cl)nnc1-c1ccccc1Cl,active: 3.55 µM,–
CCN(CC)CCOC(c1ccccc1)c1ccc(C)cc1 (centres undefined),inactive,–
COc1cc(OC)cc(C(=O)NCc2ccc3[nH]c(C)cc3c2)c1,"inconclusive: 70.8 µM [inhibitor, single point]",–
CCC/C(O)=C1\C(=O)CC(c2ccccc2)CC1=NC(C)C(=O)O (centres undefined),inactive,–
COCCn1c(=O)c(-c2ccccc2)nc2cnc(N3CCN(C)CC3)nc21,–,inactive: -1.45% [at 0.501 µM]
CCNc1nc(C#N)nc2c1ncn2-c1cc(F)cc(F)c1,–,inactive: -4.36% [at 0.501 µM]

Compound,Potency,"activity, negative = inhibition"
CN(C)CCCN(C(=O)c1cccs1)c1nc2cc3c(cc2s1)OCO3,"inconclusive: 56.2 µM [inhibitor, partial curve, poor fit]",–
CC(C)Oc1ccc(CNC(=O)c2ccc3nc(Cc4ccccc4)oc3c2)cc1,inactive,–
COc1cccc(-c2cc(=O)c3cc(NC(=O)c4cccnc4)ccc3[nH]2)c1,"inconclusive: 31.6 µM [inhibitor, partial curve]",–
CCOc1ccc(-c2nn3c(-c4ccccc4)nnc3s2)cc1,–,inconclusive: -58.5% [inhibitor] [at 12.7 µM]
CN(C)CCN1C(=O)C(O)=C(C(=O)c2cc3ccccc3o2)C1c1ccccn1 (centres undefined),"inconclusive: 17.8 µM [inhibitor, partial curve, poor fit]",–
CCOc1ccc(/C=C\c2nc(O)c([N+](=O)[O-])c(=O)[nH]2)cc1OCC,"inconclusive: 79.4 µM [inhibitor, single point]",–
Cc1cc(C)cc(OCC(=O)N(Cc2ccc(C)o2)C2CCS(=O)(=O)C2)c1 (centres undefined),inactive,–
CC(C)(C)C(=O)Nc1nc2c(s1)COc1ccccc1-2,"inconclusive: 31.6 µM [inhibitor, single point]",–
COc1ccc(C(CCN2CCN(c3ccccc3)CC2)c2c(OC)cc(OC)c3c(-c4ccccc4)cc(=O)oc23)cc1 (centres undefined),–,inconclusive: -82.7% [inhibitor]
CCOC(=O)C1CCN(C(=O)COc2ccc(Cl)cc2)CC1,–,inactive: 18.8% [at 0.0925 µM]
CCCCCCCN1CCC(=O)N([C@H](CO)CC(C)C)CC1,inactive,–
N#CC1=C(S)N(c2ccccc2)C2(CCCCC2)NC1=O,"inconclusive: 11.2 µM [inhibitor, partial curve, poor fit]",–
O=C(Nc1ccc(-c2nc3cccnc3s2)cc1)c1ccc(Br)o1,"inconclusive: 35.5 µM [inhibitor, partial curve]",–
COc1ccc(Cl)cc1NC(=O)c1c(NCc2ccc(C)o2)sc2c1CCCC2,"inconclusive: 1.78 µM [inhibitor, full curve]",–
COc1cc(/C=N/NC(=O)c2cc[n+]([O-])cc2)ccc1O,"inconclusive: 89.1 µM [inhibitor, single point]",–
N#C/C=C/N1CCC(Cc2ccccc2)CC1,inactive,–
COc1ccc(Cl)cc1-c1nc(SCC(=O)NC2CCS(=O)(=O)C2)n[nH]1 (centres undefined),"inconclusive: 3.55 µM [inhibitor, single point]",–
CCC(=O)NC(=S)Nc1ccc(NC(=O)c2ccc(Br)o2)cc1,"inconclusive: 35.5 µM [inhibitor, partial curve]",–
CCCNC(=O)COC(=O)c1cc2c(=O)n3ccccc3nc2s1,"inconclusive: 28.2 µM [inhibitor, single point]",–
CCc1ccc(/C=N/NC(=O)c2nnn(-c3nonc3N)c2CN2CCc3ccccc32)cc1,"inconclusive: 3.16 µM [inhibitor, partial curve, poor fit]",–
CCOc1cc(C(=O)OCC(=O)Nc2cccc(C)c2)ccc1OCC(=O)N1CCOCC1,inactive,–
Cc1ccc2c(c1)C(c1ccc(F)cc1)N(C(=O)C1CC1)CC(=O)N2 (centres undefined),"inconclusive: 79.4 µM [inhibitor, single point]",–
Cc1ccc(S(=O)(=O)N2CCN(C(=O)CN3CCCC3)C2)cc1,"inconclusive: 89.1 µM [inhibitor, partial curve, poor fit]",–

Compound,Potency,"activity, negative = inhibition"
COc1ccc(-c2nc3cnccn3c2Nc2ccc3c(c2)OCO3)cc1,active: 44.7 µM,–
Cc1n[nH]c(C)c1S(=O)(=O)N(CC(=O)NC1CCCC1)c1ccc(C(C)C)cc1,"inconclusive: 89.1 µM [inhibitor, single point]",–
Clc1ccccc1Cc1cn2cc(-c3ccccc3)nc2s1,inactive,–
Cn1c(=O)c2c(-c3ccccc3Br)n(CCc3ccccc3)cc2n(C)c1=O,"inconclusive: 25.1 µM [inhibitor, partial curve, poor fit]",–
COc1ccc(CC(=O)Nc2sc(Cc3ccccc3)c(C)c2C(N)=O)cc1,inactive,–
COc1cc(C(=O)OCC(=O)c2cc(C)n(CC3CCCO3)c2C)cc(OC)c1C (centres undefined),"inconclusive: 2.24 µM [inhibitor, partial curve, poor fit]",–
O=c1[nH]c(CSc2nnc(COc3ccccc3)n2-c2ccccc2)nc2ccccc12,active: 4.47 µM,–
CCN1CCN(C(c2cccs2)C(C)NC(=O)c2ccccc2OC)CC1 (centres undefined),"inconclusive: 63.1 µM [inhibitor, partial curve, poor fit]",–
O=C(Nc1cc2c(cc1Cl)OCCO2)c1ccco1,"inconclusive: 7.08 µM [inhibitor, single point]",–
CC1=C(C(=O)OC2CCCC2)C(c2coc3ccc(C)cc3c2=O)C2=C(CCCC2=O)N1 (centres undefined),"inconclusive: 50.1 µM [inhibitor, partial curve, poor fit]",–
COc1ccc(NC(=O)c2cc(S(=O)(=O)N3CCOCC3)ccc2N2CCOCC2)cc1,"inconclusive: 70.8 µM [inhibitor, partial curve, poor fit]",–
CC1CN(C(=O)CSc2nnc(-c3cccs3)n2N)CC(C)O1 (centres undefined),"inconclusive: 4.47 µM [inhibitor, single point]",–
CC(C)COc1ccccc1C1CC(=O)Nc2cc3c(cc21)OCO3 (centres undefined),"inconclusive: 5.01 µM [inhibitor, partial curve, poor fit]",–
COc1ccc(N/C=C(/C(C)=O)c2ccccc2)cc1,"inconclusive: 31.6 µM [inhibitor, full curve, poor fit]",–
O=C(Nc1nc2c(Cl)ccc(Cl)c2s1)c1ccco1,"inconclusive: 89.1 µM [inhibitor, single point]",–
Cc1ccc(-n2nc(C)c3c(C(=O)Nc4ccc(Br)c(C)c4)cc(C)nc32)cc1,inactive,–
COc1ccc(Nc2nc(N)nc(CSC(=S)N3CCCCC3)n2)cc1,"inconclusive: 79.4 µM [inhibitor, single point]",–
CC(=O)c1ccc(N2CCN(C(=O)c3cc(-c4cccnc4)nc4ccc(Br)cc34)CC2)cc1,"inconclusive: 28.2 µM [inhibitor, partial curve, poor fit]",–
CCOc1cc(CN2CCN(CCOCCO)CC2)ccc1OC,inactive,–
COCCNc1nc(-c2ccccc2OC)nc2ccccc12,–,inactive: 3.9% [at 0.501 µM]
N#Cc1cccc(-c2nccc(-n3ccnc3)n2)c1,–,inconclusive: -52.6% [inhibitor] [at 0.501 µM]
Cc1cc(C)n(C(=O)c2ccc(NC(=O)C3CC3)cc2)n1,inactive,–
COc1ccc(NC(=O)Cn2ccn(-c3ccccc3)c(=O)c2=O)cc1,"inconclusive: 3.55 µM [inhibitor, partial curve, poor fit]",–
